{"source": "paper PMC5836133", "note": "The other results are listed elsewhere or left out. At the low end of the ranking the order means little.", "data": [{"tested_on": "T1, GST-NbGlk1(82-244)", "T1 sequence": "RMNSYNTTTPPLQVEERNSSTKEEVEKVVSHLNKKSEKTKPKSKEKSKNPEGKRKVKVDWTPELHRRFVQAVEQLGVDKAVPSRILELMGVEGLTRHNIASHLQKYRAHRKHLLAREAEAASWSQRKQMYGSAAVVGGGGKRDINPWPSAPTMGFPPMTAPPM", "assay": "protein-binding microarray;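 note: rank-based score ranging −0.5 to +0.5 with E above 0.45 taken as significant binding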", "conditions": "NbGlk1 is a Golden2-like transcription factor of Nicotiana benthamiana; high values mean tight binding; most listed sequences are background and not binding sites; double strand, one strand shown", "units": {"binding signal": "E-score"}, "values": [{"sequence": "AGGCCGTA", "binding signal": -0.277}, {"sequence": "AAAACGAC", "binding signal": -0.0694}, {"sequence": "ACATCGTA", "binding signal": 0.0233}, {"sequence": "AAAGTAAT", "binding signal": 0.215}, {"sequence": "ATAATTAT", "binding signal": 0.164}, {"sequence": "ATTGTACG", "binding signal": 0.138}, {"sequence": "AGACTCAG", "binding signal": -0.17}, {"sequence": "AAACAGTG", "binding signal": -0.146}, {"sequence": "AACAGATG", "binding signal": -0.0902}, {"sequence": "ATCAGTGA", "binding signal": 0.218}, {"sequence": "CACCTCCC", "binding signal": -0.157}, {"sequence": "CAGCCGCC", "binding signal": -0.195}, {"sequence": "AAAATCGA", "binding signal": 0.381}, {"sequence": "AGCTTGGC", "binding signal": -0.247}, {"sequence": "AAGCATGA", "binding signal": -0.111}, {"sequence": "CAAGTTCC", "binding signal": -0.194}, {"sequence": "AGATAATG", "binding signal": 0.183}, {"sequence": "ATAATTCC", "binding signal": 0.153}, {"sequence": "AATTATTA", "binding signal": 0.153}, {"sequence": "ACACCGTA", "binding signal": 0.00495}, {"sequence": "ACGCTAGT", "binding signal": -0.205}, {"sequence": "CAATTCCA", "binding signal": 0.0894}, {"sequence": "CAGCCACC", "binding signal": -0.15}, {"sequence": "ATATGGGC", "binding signal": 0.0983}, {"sequence": "AGTAGCGG", "binding signal": -0.134}, {"sequence": "ACGAAGAA", "binding signal": 0.026}, {"sequence": "CAAGGCTG", "binding signal": -0.272}, {"sequence": "AAACGAAG", "binding signal": -0.0522}, {"sequence": "AGAATATA", "binding signal": 0.267}, {"sequence": "AAAGACAT", "binding signal": -0.0244}, {"sequence": "AACTTGCA", "binding signal": -0.00542}, {"sequence": "AACTCACC", "binding signal": -0.217}, {"sequence": "ACCCCCGT", "binding signal": -0.279}, {"sequence": "ATAATCCA", "binding signal": 0.354}, {"sequence": "ATTGGTGA", "binding signal": 0.0654}, {"sequence": "ACGCCTAC", "binding signal": -0.258}, {"sequence": "AGGCCTGC", "binding signal": -0.302}, {"sequence": "ATACGCAG", "binding signal": 0.163}, {"sequence": "ACTGGCGG", "binding signal": -0.0825}, {"sequence": "ACTCTATC", "binding signal": -0.102}, {"sequence": "AGGTCTTC", "binding signal": -0.29}, {"sequence": "AGCCATCA", "binding signal": -0.0735}, {"sequence": "ACGAGTTG", "binding signal": -0.12}, {"sequence": "AACCGTCC", "binding signal": -0.096}, {"sequence": "AGAGTGTG", "binding signal": 0.0233}, {"sequence": "AGCCCCTG", "binding signal": -0.237}, {"sequence": "AGGAGAAT", "binding signal": 0.267}, {"sequence": "AAAGCAGG", "binding signal": -0.119}, {"sequence": "AGGCAGTC", "binding signal": -0.276}, {"sequence": "AGGAGCTC", "binding signal": -0.293}, {"sequence": "CAACCCGC", "binding signal": -0.0505}, {"sequence": "AGTATACT", "binding signal": 0.133}, {"sequence": "ATCGCAAC", "binding signal": 0.187}, {"sequence": "ATGCTCGG", "binding signal": -0.193}, {"sequence": "AACAAACC", "binding signal": -0.0276}, {"sequence": "ACCAACCC", "binding signal": -0.312}, {"sequence": "ACGCTCAT", "binding signal": -0.125}, {"sequence": "ACGCCCCG", "binding signal": -0.279}, {"sequence": "CACGCCCA", "binding signal": -0.281}, {"sequence": "AAAATCTC", "binding signal": 0.453}, {"sequence": "AACAAGAC", "binding signal": -0.128}, {"sequence": "AGTAGCAG", "binding signal": -0.108}, {"sequence": "AGCGGGGC", "binding signal": -0.25}, {"sequence": "CAATAGAA", "binding signal": 0.0372}, {"sequence": "ACTTCTAT", "binding signal": -0.0208}, {"sequence": "AGCCTTAC", "binding signal": -0.0438}, {"sequence": "AACCCCAT", "binding signal": -0.155}, {"sequence": "ACGCGGGC", "binding signal": -0.213}, {"sequence": "ATATCATA", "binding signal": 0.307}, {"sequence": "ATATATCA", "binding signal": 0.276}, {"sequence": "ACACGTGT", "binding signal": -0.0426}, {"sequence": "ACCCGTTC", "binding signal": -0.151}, {"sequence": "AAATGGCG", "binding signal": -0.0153}, {"sequence": "ATATCAAA", "binding signal": 0.228}, {"sequence": "AATAATCA", "binding signal": 0.184}, {"sequence": "ATTCTTAC", "binding signal": 0.198}, {"sequence": "CACAGATG", "binding signal": -0.0732}, {"sequence": "ACACGGAG", "binding signal": -0.17}, {"sequence": "ATGAACGC", "binding signal": -0.118}, {"sequence": "AAGCAAGA", "binding signal": 0.107}, {"sequence": "AATGAGTC", "binding signal": 0.00779}, {"sequence": "AGCTCCTG", "binding signal": -0.234}, {"sequence": "AACCGCGA", "binding signal": 0.036}, {"sequence": "AACATGAC", "binding signal": -0.0805}, {"sequence": "AGTATCGC", "binding signal": 0.156}, {"sequence": "AAACGTTT", "binding signal": 0.0762}, {"sequence": "AACAATAG", "binding signal": 0.104}, {"sequence": "AATCGTTC", "binding signal": 0.0933}, {"sequence": "AACTTCAG", "binding signal": 0.00867}, {"sequence": "ATTCTAAG", "binding signal": 0.193}, {"sequence": "AACTCATT", "binding signal": -0.0362}, {"sequence": "AGTACTAA", "binding signal": -0.0591}, {"sequence": "ACGGTGCC", "binding signal": -0.292}, {"sequence": "AGAGATTC", "binding signal": 0.434}, {"sequence": "AATGTCAG", "binding signal": -0.0343}, {"sequence": "ATGGCCAC", "binding signal": -0.144}, {"sequence": "AACTGAGG", "binding signal": -0.0452}, {"sequence": "CAAGACCG", "binding signal": -0.218}, {"sequence": "ATAAGCAG", "binding signal": -0.045}, {"sequence": "CAACTGGA", "binding signal": -0.123}, {"sequence": "AACGTCGG", "binding signal": -0.0846}, {"sequence": "ATGTCAGA", "binding signal": -0.0173}, {"sequence": "ACAAAACA", "binding signal": 0.171}, {"sequence": "AAACTCCA", "binding signal": -0.225}, {"sequence": "AACAGTTG", "binding signal": 0.00335}, {"sequence": "CAAGGCGC", "binding signal": -0.126}, {"sequence": "CACCCCAC", "binding signal": -0.142}, {"sequence": "CAATCCGC", "binding signal": 0.305}, {"sequence": "ATCCTGAG", "binding signal": 0.23}, {"sequence": "AACGGTGA", "binding signal": 0.0509}, {"sequence": "AACGGGGG", "binding signal": -0.105}, {"sequence": "AAAAACGT", "binding signal": -0.0212}, {"sequence": "ATTAGAAG", "binding signal": 0.0962}, {"sequence": "ATTGACCG", "binding signal": -0.0574}, {"sequence": "AATCCGAT", "binding signal": 0.432}, {"sequence": "ACGGGTCC", "binding signal": -0.326}, {"sequence": "CAATCTAC", "binding signal": 0.341}, {"sequence": "ACTAGTTC", "binding signal": -0.14}, {"sequence": "AGGGATTC", "binding signal": 0.359}, {"sequence": "AGTAACTG", "binding signal": 0.0034}, {"sequence": "AGCGGTCA", "binding signal": -0.13}, {"sequence": "CAGACGCC", "binding signal": -0.259}, {"sequence": "ATCCTGCA", "binding signal": 0.261}, {"sequence": "CACCGCCC", "binding signal": -0.135}, {"sequence": "ATTTAACA", "binding signal": 0.19}, {"sequence": "ACGGCGCA", "binding signal": -0.0754}, {"sequence": "ATCGACTA", "binding signal": 0.0618}, {"sequence": "ATCGGCGC", "binding signal": 0.071}, {"sequence": "ATAAGTCA", "binding signal": -0.0921}, {"sequence": "AACGGTTA", "binding signal": -0.145}, {"sequence": "AGATGGCG", "binding signal": -0.00935}, {"sequence": "AGCGCATG", "binding signal": -0.211}, {"sequence": "AGCCAGCG", "binding signal": -0.13}, {"sequence": "AACAGAGC", "binding signal": -0.134}, {"sequence": "AAAGTCAC", "binding signal": -0.221}, {"sequence": "ATCTGCGG", "binding signal": 0.198}, {"sequence": "ACTATCAC", "binding signal": 0.0553}, {"sequence": "AGGTGCTA", "binding signal": -0.157}, {"sequence": "ATGGCATA", "binding signal": -0.0625}, {"sequence": "CACGCGGC", "binding signal": -0.104}, {"sequence": "AAATACTA", "binding signal": 0.149}, {"sequence": "AAGAGTGC", "binding signal": -0.0963}, {"sequence": "ACAGCAGA", "binding signal": 0.0678}, {"sequence": "AAAAACGG", "binding signal": -0.0992}, {"sequence": "ATCTGCAA", "binding signal": 0.317}, {"sequence": "ATGGGAAC", "binding signal": -0.131}, {"sequence": "ATATCACA", "binding signal": 0.369}, {"sequence": "ACAGGTCT", "binding signal": -0.142}, {"sequence": "AGTTTGAG", "binding signal": 0.0313}, {"sequence": "AAAAACGA", "binding signal": 0.0419}, {"sequence": "AAATCGGA", "binding signal": 0.303}, {"sequence": "ATGTTCCA", "binding signal": 0.0397}, {"sequence": "AGTTCACA", "binding signal": 0.0163}, {"sequence": "AACAATCC", "binding signal": 0.244}, {"sequence": "AGTTTGCG", "binding signal": -0.143}, {"sequence": "CAGAAGAC", "binding signal": -0.0624}, {"sequence": "AAGGGCTC", "binding signal": -0.265}, {"sequence": "ACCAACAA", "binding signal": 0.069}, {"sequence": "AGCTAAAG", "binding signal": -0.139}, {"sequence": "ACAGTTGC", "binding signal": -0.16}, {"sequence": "AACCTTCC", "binding signal": -0.128}, {"sequence": "AATCTTCC", "binding signal": 0.361}, {"sequence": "AGTGGCTA", "binding signal": -0.17}, {"sequence": "CAAGCGGC", "binding signal": -0.27}, {"sequence": "AATCACAT", "binding signal": 0.265}, {"sequence": "CAAAGCCG", "binding signal": -0.0393}, {"sequence": "ATTAATTA", "binding signal": 0.0969}, {"sequence": "AAAGGGAG", "binding signal": -0.153}, {"sequence": "CACCTAGC", "binding signal": -0.277}, {"sequence": "AAAATTAC", "binding signal": 0.203}, {"sequence": "ATCCCTCG", "binding signal": 0.139}, {"sequence": "AAGTTTCC", "binding signal": -0.0482}]}]}
